# Reference: PubChem BioAssay AID1963576 (National Center for Advancing Translational Sciences (NCATS), 2024)
# Among all 46,000 compounds or so, about 60 (0.1%) were called active. Inconclusive results (about 3%) are left out. Calls come from the whole dose curve; as a rule, active = well fitted inhibition curve with a large enough effect; inconclusive = small, poorly fitted or top-dose-only effect; inactive = no such curve, though single readings can be large or run the other way. The list shows a part of the results.
# Assay: Primary qHTS assay for Inhibitors of ovarian cancer metastasis using an organotypic tumor microenvironment (TME) model.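 For activity change, negative = inhibition: plate controls were DMSO wells for no effect and tomatine positive control wells for full effect.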 Note: nearly all actives have a fitted effect of over 65% in size.
# Details: SKOV3ip1-GFP adhesion/invasion on 3D omental model, fluorescence; series mostly up to 45.8 µM; activity change, negative = inhibition: at the top concentration
# Method in brief: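 Adhesion/invasion was scored as fixed GFP-labeled SKOV3ip1 cell counts (488/509 nm), normalized to DMSO and tomatine controls. Cancer cells in serum-free medium, with four compound doses (0.36-46 umol/L), sat 2 hr at RT then 16 hr at 37 C on a 48 hr fibroblast/mesothelial/ECM culture.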
Structure (SMILES),"activity change, negative = inhibition",outcome
O=C(NCc1ccc(F)cc1)C(=O)NCC(c1cccs1)S(=O)(=O)c1cccs1 (configuration not stated),inactive: 4.39%,
CCN(CC)S(=O)(=O)c1ccc2c(c1)N(CC(=O)NCC(C)c1ccccc1)C(=O)CO2 (configuration not stated),inactive: 7.37%,
CCc1ccccc1NC(=O)CN1C(=O)COc2ccc(S(=O)(=O)N3CCCCCC3)cc21,,inactive
COc1ccccc1CNC(=O)c1ccc2c(c1)N(Cc1ccc(C)cc1)CCS2,inactive: 9.3%,
Cc1ccc(-n2ncc3c(N4CCCCCC4)ncnc32)cc1C,inactive: -20.1%,
CCn1cc(C(=O)N2CCN(c3ccccc3OC)CC2)c(=O)c2cc(S(=O)(=O)N3CCC(C)CC3)ccc21,,inactive
CNS(=O)(=O)c1cn(CC(=O)N2CCN(c3cccc(Cl)c3)CC2)cc1S(=O)(=O)NC,inactive: -0.825%,
CC(C)Oc1ccc(CNC(=O)c2ccccc2NC(=O)c2nsc3ccccc23)cc1,inactive: -7.55%,
CCC(Oc1ccccc1)C(=O)Nc1ccc(OCc2cc(=O)n3ccc(C)cc3n2)cc1 (configuration not stated),inactive: -8.97%,
Cc1oc(-c2ccccc2F)nc1CSCC(=O)NCCc1ccccc1,inactive: -5.32%,
CCCCC(C=O)NC(=O)C(CC(C)C)NC(=O)OCc1ccccc1 (configuration not stated),inactive: -4.12%,
O=S(=O)(NCCc1nnc2ccc(SCc3c(F)cccc3Cl)nn12)c1ccccc1,inactive: -8.37%,
COC(=O)c1ccc(CN(Cc2ccc(OC)c(OC)c2)S(=O)(=O)c2cc(C(=O)Nc3cccc(C)c3)ccc2F)cc1,inactive: 8.09%,
O=C(CCCCn1c(=O)c2ccccc2n(Cc2ccccc2F)c1=O)NCc1ccccc1Cl,inactive: 23.7%,
Cc1ccc(NC(=O)CSc2nc3ccc(NC(=O)CCc4ccccc4)cc3s2)c(C)c1,,inactive
CCN(CC)C(=O)C1=CC(c2ccc3c(c2)OCO3)=NS(=O)(=O)N1C,inactive: 1.1%,
COc1ccc(N2C(=O)CS(=O)(=O)C23C(=O)N(Cc2c(F)cccc2Cl)c2ccccc23)cc1 (configuration not stated),inactive: -21.9%,
CC(C)CCNC(=O)c1cc(Sc2ccc(F)cc2F)nc2ccccc12,inactive: 10.4%,
COc1ccc(NC(=O)CN(C)S(=O)(=O)c2ccc3nc(C)sc3c2)cc1,inactive: -1.06%,
CCOC(=O)C1=C(C(F)(F)F)Nc2ncnn2C1c1cccc(OC)c1OC (configuration not stated),,inactive
O=C(CN1CCN(CC(=O)Nc2ccccc2F)CC1)Nc1ccc(Cl)c(C(F)(F)F)c1,inactive: -10.1%,
CCOC(=O)c1cnc2c(C)cc(C)cc2c1Nc1ccc(OCc2ccccc2)cc1,,inactive
CCCCn1cc(S(=O)(=O)c2ccccc2)c(=O)c2cc(F)c(N3CCC(C)CC3)cc21,inactive: 0.176%,
COc1ccc(NC(=O)C2=C(C)Nc3ncnn3C2c2ccccn2)cc1 (configuration not stated),,inactive

Structure (SMILES),"activity change, negative = inhibition",outcome
O=C(NCCc1ccccc1)c1ccc(CSc2nc3ccncc3n2Cc2cccc(F)c2)cc1,inactive: -12.6%,
COc1cc(C(=O)Nc2ccc(OCc3cc(=O)n4cccc(C)c4n3)cc2)cc(OC)c1OC,inactive: 1.32%,
CCc1ccc(NC(=O)C2CCN(S(=O)(=O)c3c(C)noc3/C=C\c3ccc(OC)cc3)CC2)cc1,inactive: 0.334%,
CC1=C(c2ccc(C)c(C)c2)S(=O)(=O)N=C1N1CCC(C(=O)N2CCCCC2)CC1,inactive: -7.64%,
CCOc1ccc(CNC(=O)CCc2cn(CC)c3ccccc23)cc1,inactive: -7.65%,
CCOc1ccccc1N1CC(c2nc3ccccc3n2CCCCOc2cc(C)ccc2C)CC1=O (configuration not stated),inactive: -2.02%,
CN(C)c1ccc(CNC(=O)c2ccc3c(c2)N(C)C(=O)C2CCCCN32)cc1 (configuration not stated),inactive: -16.4%,
O=C(c1cnc(N2CCOCC2)c2ccccc12)N1CCN(c2ccccc2F)CC1,inactive: 2.29%,
COc1ccc(-n2nc(C(=O)NCc3ccc(F)cc3)c3c4ccccc4n(C)c3c2=O)cc1,inactive: 5.89%,
CCN(CC)C(=O)c1sc2c(c1C)c(=O)n(CCc1ccccc1)c(=O)n2Cc1cccc(Cl)c1,inactive: 16.1%,
COc1ccccc1CNc1ccc(-c2nc(-c3cccc(C)c3)no2)cc1[N+](=O)[O-],inactive: -8.36%,
CCCCOc1ccc(CN2C(=O)C(=O)c3cc(C)ccc32)cc1OC,inactive: 16.1%,
COC(=O)c1cc(NC(=O)Cn2nc(-c3ccccc3)c3c(c2=O)CCCC3)cc(C(=O)OC)c1,inactive: 5.74%,
O=C(Cn1c(=O)n(CC2CCCO2)c(=O)c2ccccc21)Nc1ccc(F)cc1F (configuration not stated),,inactive
COc1cc(C)ccc1OCCSc1nc2ccc(NC(=O)c3ccccc3F)cc2s1,inactive: -5.21%,
N#C/C(=C/c1ccccc1Cl)c1nc(-c2cc3ccccc3oc2=O)cs1,,inactive
CCc1ccc(-c2cc(C)no2)cc1S(=O)(=O)NCc1ccc(OC)cc1,inactive: -29%,
Fc1ccc(NCc2ccccc2-c2nnc(-c3ccccc3Cl)o2)cc1Cl,inactive: -2.2%,
CCN(CC)C(=O)Cn1c(=O)n(CCCCCC(=O)NCc2ccc(C)cc2)c(=O)c2sccc21,inactive: 8.76%,
CC(=O)N1CCc2c(sc3c2c(=O)n(-c2cc(Cl)ccc2C)c(=O)n3C)C1,inactive: 9.24%,
CCOc1ccc(-n2c(=O)c3c(C)c(C)sc3n(Cc3ccc(C(C)(C)C)cc3)c2=O)cc1,inactive: 2.16%,
O=C(Nc1ccccc1Br)N[C@@H]1CCN(c2ccc(C(F)(F)F)cn2)C1,inactive: 0.598%,
CCOc1ccc(C(c2c(O)cc(C)n(CCOC)c2=O)N2CCN(c3ccc(F)cc3)CC2)cc1 (configuration not stated),,inactive
